Data reported in PMC4336329 (PLoS ONE, 2015).
Among all 310,000 compounds or so, about 14,000 (4.5%) showed an effect of 50% or more. Effects have a minus sign here. Some of the results follow.

biological target: human ether-à-go-go-related gene (hERG) potassium channel (human, UniProt Q12809); assay: primary screen, population patch clamp on CHO cells stably expressing hERG
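Also: peak tail current of the secondary pulse compared with the same well before compound.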

Sequence of human ether-à-go-go-related gene (hERG) potassium channel (Q12809 whole entry, looked up): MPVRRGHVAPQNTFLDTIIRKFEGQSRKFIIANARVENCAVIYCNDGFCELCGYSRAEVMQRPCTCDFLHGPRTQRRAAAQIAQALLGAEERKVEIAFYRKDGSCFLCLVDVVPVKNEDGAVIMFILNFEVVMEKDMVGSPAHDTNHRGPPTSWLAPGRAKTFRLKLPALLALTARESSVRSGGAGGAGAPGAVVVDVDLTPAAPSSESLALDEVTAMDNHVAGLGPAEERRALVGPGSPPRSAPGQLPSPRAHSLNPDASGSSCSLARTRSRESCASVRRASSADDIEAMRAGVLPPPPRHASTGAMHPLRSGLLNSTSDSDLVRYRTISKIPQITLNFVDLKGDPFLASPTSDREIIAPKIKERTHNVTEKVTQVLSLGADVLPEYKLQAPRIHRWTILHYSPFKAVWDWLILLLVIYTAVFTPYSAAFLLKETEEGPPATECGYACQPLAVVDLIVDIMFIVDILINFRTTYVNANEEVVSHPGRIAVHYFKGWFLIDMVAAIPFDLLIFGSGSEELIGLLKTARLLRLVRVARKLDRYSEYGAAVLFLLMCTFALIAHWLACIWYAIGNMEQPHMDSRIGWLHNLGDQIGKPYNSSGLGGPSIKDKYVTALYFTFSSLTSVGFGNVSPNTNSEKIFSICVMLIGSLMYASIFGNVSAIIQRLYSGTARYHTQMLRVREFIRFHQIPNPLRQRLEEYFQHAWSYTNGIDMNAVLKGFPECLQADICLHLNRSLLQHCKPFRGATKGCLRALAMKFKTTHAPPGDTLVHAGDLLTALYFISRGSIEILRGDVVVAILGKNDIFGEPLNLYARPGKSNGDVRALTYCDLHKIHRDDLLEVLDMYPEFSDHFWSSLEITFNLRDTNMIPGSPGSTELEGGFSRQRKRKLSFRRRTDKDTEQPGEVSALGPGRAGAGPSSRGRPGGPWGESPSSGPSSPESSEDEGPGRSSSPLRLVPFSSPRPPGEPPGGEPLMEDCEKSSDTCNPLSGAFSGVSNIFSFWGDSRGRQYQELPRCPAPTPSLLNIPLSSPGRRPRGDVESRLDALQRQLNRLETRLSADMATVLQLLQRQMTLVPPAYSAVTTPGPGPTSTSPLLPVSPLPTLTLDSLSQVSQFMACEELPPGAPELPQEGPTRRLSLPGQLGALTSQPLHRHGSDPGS

Row | SMILES | hERG current change (%, negative = inhibition) at 10uM [%]
1 | CCOC(=O)C(NC(=O)c1ccccc1)(OCc1ccc(F)cc1)C(F)(F)F (stereo not drawn) | 3.14
2 | CC1(C(=O)NC2CCCCCCC2)CCC(=O)N1CCN1CCOCC1 (stereo not drawn) | 9.36
3 | COc1ccc(C(=O)/C=C/c2ccc3c(c2)OCCO3)cc1 | 17.5
4 | Fc1ccc(NCc2nnc(SCc3nnc(-c4ccccc4)o3)n2CC2CCCO2)cc1 (stereo not drawn) | -53.1
5 | COC(=O)C1=CN(CC2CCCO2)C=C(C(=O)OC)C1c1cccc(O)c1 (stereo not drawn) | -9.21
6 | CCCCSc1nc(O)c(Cc2ccccc2)c(=O)[nH]1 | 1.07
7 | CC(OC(=O)c1cccs1)C(=O)NCc1ccc2c(c1)OCO2 (stereo not drawn) | 15.4
8 | CCOc1ccc(OCCC(=O)OCC(=O)NNC(=O)c2ccccc2)cc1 | 11.2
9 | CCCOc1ccc(N2C(=O)CC(SC(=NCC)Nc3cccc(F)c3)C2=O)cc1 (stereo not drawn) | 2.28
10 | COc1ccc(NC(=O)C2CCCN2S(=O)(=O)c2cccs2)c([N+](=O)[O-])c1 (stereo not drawn) | -68.3
11 | CCn1c(=O)c2ccccc2n2c(SCC(N)=O)nnc12 | 13.4
12 | CCOCCc1nnc(NC(=O)CCc2ccccc2)s1 | 14.5
13 | CCOC(=O)C1(C)/C(=N/Nc2ccc(Cl)cc2)C(=O)C(=O)N1c1ccccc1 (stereo not drawn) | 2.94
14 | CCn1nc(C)cc1C(=O)NC1CC(C)(C)Cc2c1cnn2-c1cccc(F)c1 (stereo not drawn) | -16.3
15 | CCOCCOC(=O)C1=C(C)Nc2ccc(C)cc2S1 | -3.7
16 | CNC(=O)NC(=O)CSc1ncc(C(F)(F)F)cc1Cl | 5.81
17 | Cc1ccnc(NC(=O)c2ccc3c(c2)C(=O)N(CCC(C)C)C3=O)c1 | -5.82
18 | CN(C)S(=O)(=O)c1cccc(C(=O)OCC(=O)Nc2ccc3c(c2)OCCO3)c1 | 6.72
19 | Cc1nc2c(C)cccc2cc1C(=O)N/N=C/c1ccc(N(C)C)cc1 | -9.49

Row | SMILES | hERG current change (%, negative = inhibition) at 10uM [%]
20 | COc1ccc(C(=O)Nc2ccc(S(=O)(=O)Nc3onc(C)c3C)cc2)c(OC)c1 | 12.1
21 | CCOc1ccc(-c2nc(CSCC(=O)NCCN3CCOCC3)c(C)o2)cc1 | 11.3
22 | COCCNP(=O)(c1ccccc1)c1nc2ccccc2s1 (stereo not drawn) | -4.16
23 | O=C(NC1CCCCCC1)C1c2ccccc2C(=O)N1Cc1ccco1 (stereo not drawn) | -28.6
24 | Cl.O=C(CN1C2CCC1CC(NC(=O)NC1CCCCC1)C2)NC1CC1 (stereo not drawn) | -2.58
25 | COc1ccc(C)cc1NC(=O)Cn1cnnn1 | 29.2
26 | COc1ccc(NC(=O)CNC(=O)c2nn(-c3ccc(OC)c(Cl)c3)c(=O)c3ccccc23)c(OC)c1 | 12
27 | CCCn1c(SCC(=O)Nc2c(C)cccc2CC)nnc1C(C)C | 3.71
28 | O=C(COc1ccc(Cl)cc1)N(Cc1ccccc1)c1ccccn1 | -36
29 | CC1CC(C)CN(S(=O)(=O)c2ccc(C(=O)NN3CCOCC3)cc2)C1 (stereo not drawn) | 4.53
30 | CCCCn1c(-c2cccc(C)c2)nc2cc3[nH]c(=O)c(C(C)C)nc3cc21 | 0.235
31 | O=C(O)c1ccc(CSc2nc3ccccc3o2)cc1 | 1.24
32 | CCn1c(-c2sc(-c3ccccc3)nc2C)n[nH]c1=S | 3.82
33 | CCOC(=O)C(C)n1cnc2c1c(=O)[nH]c(=O)n2C (stereo not drawn) | 5.89
34 | COc1ccccc1N/C=C1/Sc2cc(Cl)ccc2NC1=O | 8.45
35 | CN(C)C(=S)Nc1ccc(Cl)cc1 | 25
36 | CCOC(=O)N1CCN(C(=O)c2c(-c3c(Cl)cccc3Cl)noc2C)CC1 | 6.65
37 | O=c1ccc2cc(S(=O)(=O)N3CCN(c4ccccc4)CC3)ccc2[nH]1 | -0.995
38 | CCOc1nc(C)ccc1-c1noc(C)n1 | 7.48

Row | SMILES | hERG current change (%, negative = inhibition) at 10uM [%]
39 | CC(C)Cn1nc(C(=O)Nc2cccc(C(=O)NC3CC3)c2)c2ccccc2c1=O | -71.6
40 | CCOc1ccc(NC(=O)COC(=O)CC2CCCCC2)cc1 | -6.75
41 | Cc1c(Cl)cccc1-n1c(SCC(=O)NCc2ccccc2Cl)nnc1-c1ccncc1 | -36
42 | CCc1cc(CNC(=O)C2CCC(=O)N(CCc3ccc(OC)cc3)C2)on1 (stereo not drawn) | -24.1
43 | COCCNS(=O)(=O)c1ccc(Cl)c(C(=O)NC2CCN(Cc3ccccc3)CC2)c1 | -1.21
44 | COc1cccc(NC(=O)CSc2nc3ccccc3n2C)c1 | -16.5
45 | CN(CC(=O)Nc1ccc(F)cc1)C(=O)CSc1nc2ncc(Cl)cc2[nH]1 | -31.5
46 | C=CCNC1=C(Cl)C(=O)N(Cc2ccccc2)C1=O | -1.74
47 | O=C(COC(=O)c1cn(-c2ccccc2)nc1-c1ccccc1)c1ccc([N+](=O)[O-])cc1 | -1.56
48 | Cc1nn2c(N)c(-c3ccccc3)cnc2c1-c1ccccc1 | 26.2
49 | O=C(c1ccc(Sc2cccc(Cl)c2)c([N+](=O)[O-])c1)N1CCN(c2ccccn2)CC1 | -13.5
50 | COc1ccccc1NS(=O)(=O)c1ccc(/C=C/C(=O)N2CCN(C(C)=O)CC2)cc1 | -7.97
51 | COc1ccccc1-n1cnnc1SCC(=O)Nc1cc(C)on1 | 3.8
52 | Cc1ccc(Sc2ccc(C=C3C(=O)N(C)C(=O)N(C)C3=O)o2)cc1 | 12.2
53 | Cc1ccc(NC(=O)c2cnn(C)c2)cc1[N+](=O)[O-] | -5.92
54 | CCOC(=O)C1CCN(C(=O)CC2(CC(=O)O)CCCC2)CC1 | -0.575
55 | O=C(Nc1cccc(NC(=O)c2ccccc2Cl)c1)c1cccs1 | 2.54
56 | Cc1ccc(S(=O)(=O)/N=C(/Nc2ccc(O)c(C(=O)O)c2)c2ccccc2)cc1 | 10
57 | Cn1c(=O)c2c(c3ccccc31)OC(C)(C)CC2 | -6.49
